Three molecules from PMC3744409 can be followed below.

Protein sequences, listed by entry. Tags and fused reporters are not part of them. Residues count along the entry.
UniProt P49238: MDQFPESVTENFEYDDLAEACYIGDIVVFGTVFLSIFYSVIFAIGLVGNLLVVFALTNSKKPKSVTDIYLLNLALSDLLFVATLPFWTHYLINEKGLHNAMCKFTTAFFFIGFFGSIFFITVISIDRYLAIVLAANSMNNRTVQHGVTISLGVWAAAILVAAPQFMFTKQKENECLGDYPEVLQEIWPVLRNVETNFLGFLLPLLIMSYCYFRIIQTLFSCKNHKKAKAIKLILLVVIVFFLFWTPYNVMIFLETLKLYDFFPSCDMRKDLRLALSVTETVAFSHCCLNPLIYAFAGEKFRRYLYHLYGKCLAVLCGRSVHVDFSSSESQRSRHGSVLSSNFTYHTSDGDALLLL
UniProt P51681: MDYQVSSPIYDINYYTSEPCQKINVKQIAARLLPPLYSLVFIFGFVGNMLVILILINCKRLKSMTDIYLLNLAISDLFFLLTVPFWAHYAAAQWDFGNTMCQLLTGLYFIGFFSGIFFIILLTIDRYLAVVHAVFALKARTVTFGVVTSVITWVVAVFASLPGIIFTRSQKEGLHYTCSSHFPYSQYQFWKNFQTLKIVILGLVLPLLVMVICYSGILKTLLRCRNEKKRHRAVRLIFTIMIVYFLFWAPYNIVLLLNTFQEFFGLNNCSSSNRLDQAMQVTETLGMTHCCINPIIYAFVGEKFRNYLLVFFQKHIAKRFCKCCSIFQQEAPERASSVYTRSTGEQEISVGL
UniProt P78423, residues 25-341: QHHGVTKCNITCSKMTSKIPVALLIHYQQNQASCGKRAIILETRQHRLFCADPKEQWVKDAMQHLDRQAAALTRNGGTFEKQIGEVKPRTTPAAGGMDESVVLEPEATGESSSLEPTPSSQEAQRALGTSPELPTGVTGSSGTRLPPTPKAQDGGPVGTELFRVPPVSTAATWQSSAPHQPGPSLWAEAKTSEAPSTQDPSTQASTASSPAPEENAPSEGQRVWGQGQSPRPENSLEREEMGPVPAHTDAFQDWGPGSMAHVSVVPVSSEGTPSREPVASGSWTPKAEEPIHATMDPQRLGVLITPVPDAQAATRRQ

Read-outs that look alike come from different tables or passages of the source. These are yes or no findings as the source states them, for the method shown. Some binding calls cover weakened binding; strength is not graded here. For part of these data: Sequences can lack the tags named with a protein.

Test in all cases: flow cytometry on cells; only the binder purified
The target of test [1] is CX3CR1 chemokine receptor on 293T-CX3CR1 transfectants (human (cDNA from NK cells of healthy donors)) (UniProt P49238).
The target is the same in test [2]. This is another data set of the same source.
Test [3] deals with CCR5 on U87-CCR5 transfected cells (UniProt P51681).
The target in test [4] is T1, CXCR1 chemokine receptor on 293T-CXCR1 transfectants (human (cDNA from HL60 cells)) (UniProt P25024).
T1 sequence: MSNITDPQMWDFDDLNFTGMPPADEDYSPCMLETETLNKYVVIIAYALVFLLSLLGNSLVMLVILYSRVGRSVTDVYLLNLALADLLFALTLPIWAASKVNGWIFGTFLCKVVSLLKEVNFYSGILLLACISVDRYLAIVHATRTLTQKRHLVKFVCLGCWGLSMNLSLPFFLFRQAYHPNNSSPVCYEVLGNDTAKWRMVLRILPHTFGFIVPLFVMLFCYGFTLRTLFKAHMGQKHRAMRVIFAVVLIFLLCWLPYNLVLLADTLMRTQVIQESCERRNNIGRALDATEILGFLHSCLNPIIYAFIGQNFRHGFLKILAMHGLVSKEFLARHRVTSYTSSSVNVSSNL

For “Fck-Ig (Fractalkine fused to human IgG) (from UniProt P78423) (Fc fusion)”, in test [1], the binding entry is listed as “binds”.

B1: recombinant viral MIP-II (rvMIP-II) (ligand, UniProt Q98157 21-94)
chain: GDTLGASWHRPDKCCLGYQKRPLPQVLLSSWYPTSQLCSKPGVIFLTKRGRQVCADKSKDWVKKLMQQLPVTAR
For B1, the binding result in test [2] and in test [3] was “binds” each time.

B2: vMIP-II-Ig (KSHV vMIP-II fused to the Fc of human IgG1) (Fc fusion, UniProt Q98157 21-94)
chain: B1 chain
As to B2, the figures for the binding entry in test [2], in test [3] and in test [4] were “binds”, “binds” and “no binding”, respectively.
